# Experimental data taken from PubChem BioAssay AID2546 (National Center for Advancing Translational Sciences (NCATS), 2010).
# Out of some 310,000 compounds screened, about 11,000 (3.5%) were called active. This list was built around the results that the source calls inconclusive (neither active nor inactive); the mix of calls is not that of the screen. Calls come from the whole dose curve; as a rule, active = well fitted inhibition curve with a large enough effect; inconclusive = small, poorly fitted or top-dose-only effect, or effect the other way; inactive = flat fitted curve, though single readings scatter. Potencies of inconclusive entries are left out as doubtful fits.
# Assay: VP16 counterscreen qHTS for inhibitors of ROR gamma transcriptional activity;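 note: Gal4-VP16 expression switched on by copper sulfate through the metallothionein promoter; nearly all actives have a fitted effect of over 50% in size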
# Settings: Drosophila S2 Gal4-VP16 UAS-luciferase, luminescence, 20 h; activity, negative = inhibition: at 53.6 µM (top of the series)
# % is set by controls: 0 for no effect and ±100 for the full control effect; potency is the fitted concentration of half-maximal effect; tags give direction and shape of the fitted curve.
SMILES,Potency,"activity, negative = inhibition"
CCOc1cc(NC(=S)NCC2CCCO2)c(OCC)cc1NC(=O)c1ccccc1F (stereo not drawn),active: 7.94 µM,–
O=C(Cc1sc(-c2ccccc2)nc1-c1ccccc1)Nc1ccccc1,–,inactive: -16.2%
COc1ccc(NC(=O)c2cccc(Oc3ccc([N+](=O)[O-])cc3Cl)c2)cc1,"inconclusive [activator, single point]",–
O=C1CC(SCc2nc3ccccc3[nH]2)C(=O)N1c1ccc(F)c(Cl)c1 (stereo not drawn),–,inactive: -24.8%
Cc1ccnc(Nc2nc(-c3ccccc3)cs2)c1,"inconclusive [inhibitor, single point]",–
N#Cc1ccc(-c2nc3ccccc3c(=O)n2O)cc1,"inconclusive [inhibitor, single point]",–
COc1cc(C=O)ccc1OCCOCCOc1ccccc1Cl,"inconclusive [inhibitor, full curve]",–
Cc1ccccc1OCC(O)CNC1CCCC1 (stereo not drawn),–,inactive: -9.07%
Cc1ccccc1OCC(=O)Nc1sc2c(c1C#N)CC(C)(C)NC2(C)C,"inconclusive [inhibitor, partial curve]",–
CC(=O)c1ccc(N2CCN(C(=O)CCS(=O)(=O)c3ccc4c(c3)CCN4C(C)=O)CC2)cc1,"inconclusive [inhibitor, single point]",–
O=C(N/C(=C\c1ccc(Br)cc1)C(=O)N1CCOCC1)c1ccco1,–,inactive: 4%
CC(C)(C)c1ccc(C(=O)Nc2ccc(CN3CCS(=O)(=O)CC3)cc2)cc1,"inconclusive [inhibitor, full curve]",–
COc1cc([C@H](Cc2ccccc2)NC(C)=O)oc(=O)c1,active: 11.2 µM,–
COc1ccccc1NC(=S)NNC(=O)c1c(Cl)c(C)nn1C,"inconclusive [inhibitor, single point]",–
CCOC(=O)Cc1csc(NC(=O)CN(C)S(=O)(=O)c2ccc3c(c2)CCC(=O)N3)n1,active: 11.2 µM,–
O=[N+]([O-])c1cccc(/C([O-])=C(/C(=S)Nc2cccc3ccccc23)[n+]2ccccc2)c1,"inconclusive [inhibitor, single point]",–
Cc1cccc(-c2noc(CCCC(=O)NC3CCCCC3)n2)c1,"inconclusive [inhibitor, single point]",–
COc1ccc(COc2cc(-c3cccc(OC)c3)nc3ccc(NC(=O)c4cccnc4)cc23)cc1,"inconclusive [inhibitor, single point]",–
O=C(Nc1cccc(Cl)c1)Nc1ccccc1C(=O)O,–,inconclusive: -37% [inhibitor]
CC(OC(=O)C1CC(O)CN1S(=O)(=O)c1ccccc1[N+](=O)[O-])C(=O)N1CCCCC1 (stereo not drawn),"inconclusive [inhibitor, single point]",–
CSc1ccccc1C(=O)C1CCCN(C(=O)c2cc(C(C)C)no2)C1 (stereo not drawn),"inconclusive [inhibitor, single point]",–
CCOC(=O)c1ccc(-n2c(CN3CCN(CC)CC3)nc3ccc([N+](=O)[O-])cc3c2=O)cc1,–,inactive: -0.117%
CC1=NCCN1S(=O)(=O)c1c(C(C)C)cc(C(C)C)cc1C(C)C,"inconclusive [inhibitor, partial curve]",–
Cc1ccc(NC(=S)NC2CCSc3ccccc32)cc1C (stereo not drawn),active: 3.98 µM,–
N#Cc1c(NC(=S)NC(=O)c2ccccc2)sc2c1CCCC2,active: 10 µM,–

SMILES,Potency,"activity, negative = inhibition"
COc1ccc(Cn2c(C3CC3)nc3ccc(NC(C)=O)cc3c2=O)cc1,–,inactive: 5.95%
CN(CC(=O)Nc1ccccc1Br)C(=O)c1ccc(-c2ccc(Cl)cc2)o1,active: 5.62 µM,–
Cc1cc(N2CCN(c3ccccc3Cl)CC2)n2cc(-c3ccccc3)nc2n1,"inconclusive [inhibitor, single point]",–
COC(=O)c1sc(NC(=S)NNC(=O)c2c(Br)c(C)nn2C)c(C(=O)OC)c1C,"inconclusive [inhibitor, single point]",–
CC(=O)c1sc(C(C)(C)C)cc1NC(=O)c1ccccc1C(=O)O,–,inactive: 23.8%
CC(Oc1ccccc1)C(=O)NC1=NCCS1 (stereo not drawn),–,inactive: -4.31%
O=C(Nc1ccc(Nc2ccncc2)cc1)c1ccc([N+](=O)[O-])cc1,"inconclusive [inhibitor, single point]",–
O=C(Nc1cc(C(F)(F)F)ccc1Cl)C(Sc1nnc(-c2cccs2)o1)c1ccccc1 (stereo not drawn),"inconclusive [inhibitor, single point]",–
O=C(COc1ccc(/C=N/NC(=O)c2cc3ccccc3o2)cc1Cl)Nc1ccccc1,active: 0.891 µM,–
CC(C)C1NC(=S)N(Cc2ccccc2)C1=O (stereo not drawn),"inconclusive [inhibitor, single point]",–
Cc1cc(C)n(-c2ccc(C(=O)Nc3cccc(S(=O)(=O)N4CCCC4)c3)cc2)n1,"inconclusive [inhibitor, single point]",–
O=C(Nc1ccccc1C(=O)N/N=C/c1ccco1)c1ccc(Cl)cc1,active: 3.98 µM,–
COc1ccc(CNC(=O)CSc2nnc(-c3ccc(NC(C)=O)cc3)n2C)cc1,–,inactive: 6.76%
Cc1nnc(NC(=O)c2nc(S(=O)(=O)Cc3ccccc3C)ncc2Cl)s1,active: 0.708 µM,–
C/C(=N/NC(=O)c1cc(-c2ccc(Br)s2)[nH]n1)c1ccco1,"inconclusive [activator, partial curve, poor fit]",–
CCn1nc(C(=O)N[C@@H](CCSC)c2nc3ccccc3[nH]2)c2ccccc2c1=O,"inconclusive [inhibitor, partial curve]",–
C/C(=N\NC(=O)c1cc2ccccc2cc1O)c1cccs1,"inconclusive [inhibitor, single point]",–
COc1cc(CNCc2ccccn2)ccc1OCc1c(Cl)cccc1Cl,active: 20 µM,–
Cc1ccc(S(=O)(=O)N(C)CC(=O)N2CCN(Cc3ccc4c(c3)OCO4)CC2)cc1,"inconclusive [inhibitor, single point]",–
CC1CCCC(C)N1C(=O)C1CC(c2ccc(F)cc2)=NO1 (stereo not drawn),"inconclusive [inhibitor, single point]",–
O=C(CSc1nnc2c(Cl)cc(Cl)cn12)NC1CCS(=O)(=O)C1 (stereo not drawn),"inconclusive [inhibitor, single point]",–
O=C(NCc1ccco1)C1CCCN(c2ncnc3c2nc2n3CCCCC2)C1 (stereo not drawn),–,inactive: 1.31%
CC(NS(=O)(=O)c1ccc(OCC(=O)Nc2cccc([N+](=O)[O-])c2)cc1)c1ccccc1 (stereo not drawn),"inconclusive [inhibitor, single point]",–
COc1ccccc1CNS(=O)(=O)c1c(C)noc1C,–,inactive: 0.0564%
CCCCCc1cc(=O)oc2c(C(CCN3CCCC(C)C3)c3ccc(OC)cc3)c(OC)cc(OC)c12 (stereo not drawn),–,inactive: 2.17%

SMILES,Potency,"activity, negative = inhibition"
CCCOc1ccc(C(=O)NC(=S)NNC(=O)c2c(-c3ccccc3)noc2C)cc1,"inconclusive [inhibitor, single point]",–
COC(=O)c1c(N)c2ccccc2[nH]c1=O,–,inactive: -2.11%
Brc1ccc(-c2nc(-c3ccccc3)no2)o1,"inconclusive [inhibitor, single point]",–
CCOC(=O)c1cccc(NC(=O)c2ccc3c(c2)C(=O)N(CC2CCCO2)C3=O)c1 (stereo not drawn),–,inactive: -7.46%
CCCCCc1ccc(C)cc1O,"inconclusive [inhibitor, single point]",–
COc1cc(/C=C(\C#N)c2ccccn2)ccc1OCC(=O)Nc1cccc(C(F)(F)F)c1,"inconclusive [inhibitor, partial curve]",–
COc1cc(C=C2C(=O)c3ccccc3C2=O)ccc1O,–,inactive: 23.7%
COc1ccc(NC2=CC(=S)NC(C)(C)C2)cc1,"inconclusive [inhibitor, single point]",–
CC(=O)c1ccc(NC(=O)c2ccc(CSc3ccccc3)o2)cc1,"inconclusive [activator, single point]",–
CN1CCN(c2ccc(NC(=O)c3ccc(-c4ccc(Cl)cc4)o3)cc2)CC1,"inconclusive [inhibitor, single point]",–
CCOC(=O)c1sc(NC(=O)c2c(C)nn(Cc3ccccc3)c2C)cc1C,"inconclusive [inhibitor, single point]",–
O=C(CN1CCCC1)Nc1sc2c(c1C(=O)Nc1ccc(Br)cc1)CCC2,active: 3.55 µM,–
CC(C)(C)c1ccc(O)c(N=Cc2cc(Br)ccc2O)c1,"inconclusive [inhibitor, single point]",–
CCCCC(=O)Nc1cccc(-c2nc3ncccc3o2)c1,–,inactive: 1.46%
COc1ccccc1C(=O)NNC(=O)C1CCCO1 (stereo not drawn),–,inactive: 9.16%
S=c1[nH]c2cc(Cl)ccc2s1,"inconclusive [inhibitor, single point]",–
Cn1c(=S)[nH]c2c(c1=O)C(C)(C)Cc1ccccc1-2,"inconclusive [inhibitor, partial curve, poor fit]",–
CC(NC(=S)Nc1c(Br)cccc1OC(F)F)C(C)(C)C (stereo not drawn),"inconclusive [inhibitor, single point]",–
COc1ccc(/C=N/NC(=O)c2ccoc2C)cc1COc1ccc(Cl)cc1,active: 12.6 µM,–
CCOC(=O)c1ccc(NC(=O)NCCc2ccccc2OC)cc1,"inconclusive [inhibitor, single point]",–
O=C(CN1CCN(c2ccc(O)cc2)CC1)Nc1cc(S(=O)(=O)N2CCCCC2)ccc1Cl,–,inactive: -6.83%
O=C(O)c1ccc(COc2ccc3ccccc3c2)o1,–,inactive: 16.7%
COc1cc(/C=N/Nc2ccccn2)ccc1O,"inconclusive [activator, single point]",–
